To fix the notation:
B1: LINE1-full (parent)
chain: UACGUAGGUGGUUUUCCCCUGAUAGUGCUAAGGGGGCCUGGAAGUUUGGACUGGGCAGAGCUCAACACAGCGUGGCAAAGUGGCUGUGGCUAGACUGCCUCUCUGGAUUCCUCGUCACUCAGCAGGGCAUCUCUGAGAGAAAUGCC

The source gives no read counts; variants with many changes may rest on few reads.

The variants in this series derive from B1. Kind of series: self-cleavage, relative activity (ratio to wild type); higher = more cleavage; in vitro, sequencing; the parent is a self-cleaving ribozyme.
In the case of U29C A77U U102A, the self-cleavage is 2.07. Then U26C U47C C56U U96C, with 0.02; and U26C U104A A142G, with 1.39; and C28U A69U A94U, with 0.04. U29C A31G A43G C113U: the self-cleavage was determined as 0.56.

As for U29C A57G U134C, the self-cleavage came to 1.38.

On to U26A U62C A69G A140G, for which the self-cleavage is 0.05. Then U26A A43G A67G U73C A142G, with 0; and U26A A78G U130A, with 0.64. With U29A A77U A136U, the self-cleavage amounted to 0.55.

As to U26C A94U U96C, the self-cleavage worked out at 0.12. The value for A24U U46C U52A G127A was 1.49. With U26A A65G U81C A142G, the self-cleavage was 0. For the variant G27A G49A U87C, the self-cleavage came out at 0.09.

Consider C28U A57G A59G U62G U119C A142G, for which the self-cleavage was determined as 0. Then U26C A69U A129U U130C, with 0.22; and U26A U81C A140G U143C, with 1.38; and U26C A92U U109C A142G, with 1.05. The value for U26C G35U U47A A57G U115A was 1.21; that for U26C U73A A78G was 0.4. The value for U29A U47A A92G was 0.18. For the variant U26C G82A G97A, the self-cleavage was 0.06. Then U26A A57G C128U, with 0.85.

As for U26C U109A A141G, the self-cleavage was 1.61.

In the case of U29C A69U U96A, the self-cleavage came to 0.04. The value for U26A C84U U115C was 0.12. The value for U26C U29C U62C U91A A142G was 0.26. The value for C28A U52A A69G U115C G127C was 1.02. As for G27A A107G U132C G139A, the self-cleavage was found to be 1.02. The value for U26A C56A A64C U112C C113U U130C was 0.02; that for U26A G126A A142G was 1. Then U26C A59G G105A U132C, with 0.13; and U26A G53U G137U, with 1.06; and U26C U100A U109C A140G, with 0.61. The value for G25A G35A U47A A69U G139U was 0.07; that for U26A A67G A121G A140U U143A was 0.38; that for U26C A31G A124U U134C was 1.9. As to U26A U47A U112C, the self-cleavage was 0.75. Then G25A A42G U87C A129U U134A, with 0.17; and U26A U119C A138G, with 1.38; and A24U U108C C113U A124U U134A, with 1.78. Then U26A U47C A136G, with 1.48. Then U26A A94C U130C, with 0.04. Take U26C A42G A124G: the self-cleavage is 1.53. Then U26C U115C A136G, with 0.71. The value for U29A A50U A129G U134C was 1.6; that for G25A A30G G88A U109C A121G was 0.11; that for U26G A59U U87C was 0. For U29A A30G U39C U52A U102C, the self-cleavage is 0.35. The value for G25A A94G A124G U130C U134A was 0. Then G27A U108C A124G G126A, with 1.47; and U26C G49A A78G U96C A136U, with 0.13.

With A24U U62C U108C U115C, the self-cleavage came out at 0.

On to U26C U115C A117G, for which the self-cleavage turned out to be 2.76. The value for U26A A50G A129C was 1.56; that for U26G A30G U39A U115C was 0.92; that for U26A G36A A142C was 0.95.

Consider U26A U47A U115C, for which the self-cleavage turned out to be 1. Then G25A U109C A129U, with 0.9; and U26A A77C G122U, with 0.86; and U26A U62A A65G, with 0.06. The value for C28G A30U G35A G40A U52A U62C U96C was 0.06; that for U26C A77U C84U was 0.05; that for U26C A67U A107G was 0.06. The value for U29C A77G U81C C98U was 1.32; that for U29A A57U U115C U119C G122A C145G was 0.57; that for G25A U62C A69U was 0.05. Turning to U26C G35A U47C A67U A129G U134C, the self-cleavage was 0.11. Consider U26A A30G A65G, for which the self-cleavage was 0.35. The value for U26A U39A U108C U130C A141G was 0.84; that for U29C A57G A138G was 1.75. The value for U29A A77U U96C U143C was 0.16. The value for G25C A92G U130C was 0.16; that for U29A G83C U102C was 0.44. In the case of U26A U81C U112A U119A, the self-cleavage was 0.48. Then U26C U109G U143A, with 0.44. In the case of U29C A65G U102A U130C, the self-cleavage is 0.79.

With C28U A77U A136U A142G, the self-cleavage came out at 0.14. In the case of U29C A67C A140G, the self-cleavage came out at 0. The value for U29C A92U A129U was 0.96; that for G25A U47C A117G was 1.39; that for G25A A30G U91C was 0.35. For the variant U26C U46C U62C, the self-cleavage was determined as 0. The value for U26A U39C U96A U134C was 0.05. Then C28U U62C A67U U81A U85A, with 0.03.

As for U29A U39A A94G C113U U119C U132C A136G, the self-cleavage is 0.16. Then G27A G36C A142G, with 1.09.

For U26C U62C U73C U119A G122A, the self-cleavage is 0. The value for U29A U47C A94G was 0.61; that for U26G G83A A141G was 1.43; that for G27A U39C A79G A138G was 0.42. On to U26A A77U C90U A107G U109C, for which the self-cleavage turned out to be 0.04. Turning to U26G A57G A69G U96A, the self-cleavage was 0. Then U26C C61A G74A, with 0.03; and U26C G48A A121G G122A, with 1.45. Then U26A U39A U134A, with 0.64. For G25A A30G U134A A138G, the self-cleavage was 1.62. The value for U29A A79G U87C was 0.57. The value for G25U U81A U85A U132G was 0.11. The value for G27A A50U A57U U85A was 0.04; that for U26A A42U A69G was 0.44; that for U26A G34A U45C U85C A138G A141G was 0.09. For the variant A24U U47C U109A, the self-cleavage stood at 1.73. Then U29C A50G A67U, with 0.23; and G27A U52C G93A U96C, with 0.05.

On to U26C A42U A43G C71A A77U U112C A129U U132C, for which the self-cleavage amounted to 0.11. Then C28U U39A A140G U143A, with 0.71.

In the case of U26C A67U U104C A129G U143C, the self-cleavage turned out to be 0.

Turning to C28A U45C G70A A79G, the self-cleavage came out at 0.1.

For U26C A94G A124U C128U, the self-cleavage came to 0.32. On to U26A U39C U115A, for which the self-cleavage was found to be 0.79.

In the case of U26C U29A U47A U52A U104C C113A, the self-cleavage is 1.42.

For the variant U26C U52A A69G A77G G106U U130C, the self-cleavage is 0. The value for U26G C120A U132C was 1.82; that for U26G A140G A141G was 1.2. Then U29A C37U A92G C98U U119C A136G G137A, with 0.08. The value for U26C C38U U45C U52C A57G was 0.92. G25A A31G U81C U108A: the self-cleavage came to 1.5. The value for U26C A50U A107U was 1.07; that for U26C G105A A140G was 0.84. The value for U26A A59U A78U U85C was 0.23.

On to U26C A57G U100C A117U, for which the self-cleavage worked out at 0.84.

U26C U45C U143A: the self-cleavage was 0.75. The value for U26A C66U U73A U102C A107G U108C U112C was 0.08; that for U26C C101A U108A was 1.28. Then G27A U85C U104C A107G C116U, with 0.07; and U26A U108A G114A U134C, with 0.22; and U29C A67U U100C U134C, with 0.3. Then G25A U130C A142G, with 1.7. For G25C U85C A140G, the self-cleavage was 0.19. Then G25A U26C U130C, with 1.65. U29A A140G A142G: the self-cleavage turned out to be 1.22.

Turning to G27A A42G U143A, the self-cleavage turned out to be 1. The value for G27A C56U U132A was 0.18; that for U26A A79G U134C A138G was 1.23; that for U29C A43G C56U A64U A69G A77G U91A was 0.11. Then U29C A43G U87G A141G, with 0.43. With U29C A57G U73C A94G C99U A140G, the self-cleavage stood at 0.54. Then U26A G32C A59C, with 1.57; and U29C A57U A141G, with 0.16. Then U26C A30G A64G U115C, with 0; and U26G A31U U45C A77G, with 1.31; and U26C A43G U143A, with 1.07. Regarding A24U U46C A59U, the self-cleavage is 0.8. Then G27A U46A G54A U91C U108C U119C C128U, with 0.23. G25A A50G U100C: the self-cleavage was 1.74. Then U29A U39C G72A C90U G105A C128U U130C, with 0.03; and U26A A64C A141G, with 0.11. U29C A30G C71U A92U A117G: the self-cleavage amounted to 0.46. Take U26C U39G A78G U112C: the self-cleavage turned out to be 1.15. Then U26A U87C U108C, with 0.13; and U26G G48A U96C, with 0.08. The value for U29A A77G U85A was 0.35. Then U26A U29C U112C A142G, with 1.89; and U29C A43G U52C, with 1.53; and U26C U39A A129U, with 0.96. On to U26A A31U U39A A64U U112C, for which the self-cleavage was 0.29. Then U26C A117G A124U, with 1.12; and U26C A78G U85C, with 0.11; and U26A G48A U132C, with 0.72.

U26A A67G G72A C146U: the self-cleavage was 0.33. Turning to U26A A31G A43G, the self-cleavage came out at 0.67. For G27U U46A G75U C76U, the self-cleavage is 1.02.

As to U26A U96A C146U, the self-cleavage is 0.04. Take U26A U39A A43G U52A A79G U132C: the self-cleavage stood at 0.98. Consider U26A A77G U81G A142G, for which the self-cleavage was found to be 1.31.

On to U26G A69G G83C, for which the self-cleavage was determined as 0.25.
